From PubChem BioAssay AID1508623 (National Center for Advancing Translational Sciences (NCATS), 2021)
The whole screen tested about 48,000 compounds, of which about 450 (0.94%) were called active. Another 19% or so got no clear call; they are omitted. The call rests on the fitted dose curve; in most records, active means well fitted inhibition curve with a large enough effect; inconclusive means small, poorly fitted or top-dose-only effect; inactive means no such curve, though single readings can be large or run the other way. This is one part of the list.

assay: Primary qHTS for Identification of Small Molecule Inhibitors of Huntingtin Promoter Activity; conditions: HEK293 HTT promoter firefly luciferase reporter (activity 0% = vehicle and -100% = no light), 24 h; activity change, negative = inhibition: at the top concentration; further: nearly all actives have a fitted effect of over 50% in size
Summary of the method: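 Firefly luciferase signal from promoter-reporter HEK293 cells was scaled between vehicle (0%) and zero RLU (-100%). Compounds were tested at final concentrations of up to 57.5 uM over 24 h at 37 degrees C. PTC124 at 50 uM final served as control inhibitor.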

Compound	activity change, negative = inhibition
Cc1ccc(OCC(=O)N2CCN(CCc3ccncc3)CC2)cc1C	inactive: -10.3%
CC1COC2(c3ccccc3Cl)c3cc(Cl)ccc3NC(=O)CN12 (centres undefined)	inactive: -9.42%
Cc1ccc(NC(=O)N(Cc2ccc3c(c2)OCO3)C2CCN(Cc3ccccc3)CC2)cc1F	inactive: -22%
C[C@@H]1O[C@@H](O[C@@H]2C=C3CC[C@@H]4[C@H](CC[C@]5(C)[C@@H](c6ccc(=O)oc6)CC[C@]45O)[C@@]3(C)CC2)[C@H](O)[C@H](O)[C@H]1O	inactive: -39.9%
C#CCN(C)[C@H](C)Cc1ccccc1	inactive
O=C(Nc1ccc(Br)cc1)c1cc(Br)cc(Br)c1O	inactive: 25%
c1ccc2c(CN3CCNCC3)cccc2c1	inactive: 1.63%
ClC1=C(Cl)C2(Cl)C(CBr)CC1(Cl)C2(Cl)Cl (centres undefined)	inactive: -3.94%
Cc1ccc(-n2c(/C=C/c3ccc(Br)s3)nc3ccccc3c2=O)cc1C	inactive: -14.8%
CCN(CCO)CCn1c(Cc2ccccc2)nc2c1c(=O)n(C)c(=O)n2C	inactive: 8.84%
C=CCOC(Cn1ccnc1)c1ccc(Cl)cc1Cl (centres undefined)	inactive: -22.7%
CC(=O)Nc1cc([As](=O)(O)O)ccc1O	inactive: 7.96%
C=CCN1CC[C@]23CCCC[C@H]2[C@H]1Cc1ccc(O)cc13	inactive: 0.274%
FC(F)(F)c1cccc(C2=CCN(CCc3ccc4ccccc4c3)CC2)c1	inactive: -4.54%
Cc1nnc(NC(=O)c2cccn(Cc3ccc(Cl)cc3)c2=O)s1	inactive: -4.14%
CC(C)NCC(O)c1ccccc1Cl (centres undefined)	inactive: -4.1%
O=C(Nc1ccccc1-c1ccc(Cl)cc1)c1cccnc1Cl	inactive: -0.754% [at 116 µM]
COc1ccc2c(C(=O)c3ccc(Cl)cc3)c(C)n(CC(=O)O)c2c1	inactive: -15.3%
CCN1C[C@]2(OC(=O)c3ccccc3NC(C)=O)CC[C@H](OC)[C@@]34[C@H]5CC6[C@@H](OC)C[C@](O)(C(C[C@@H]23)[C@@H]14)[C@@]5(O)[C@@H]6OC	inactive: -2.2%
CCC(C(N)=O)N1CCCC1=O (centres undefined)	inactive: 6.1%
CC(=O)N1CC(=O)Nc2ccc(F)cc2C1c1ccccc1 (centres undefined)	inactive: -15.8%
O=S(=O)(O)C(F)(F)C(F)(F)C(F)(F)C(F)(F)F	inactive: 10% [at 116 µM]
CCCCCCCCC(=O)NCc1ccc(O)c(OC)c1	inactive: -5.76%

Compound	activity change, negative = inhibition
CCC12CN3CC(CC)(CN(C1)C3c1ccccn1)C2=O (centres undefined)	inactive: -18.9%
COP(=S)(OC)Oc1cc(Cl)c(Cl)cc1Cl	inactive: 8.38%
CCCSc1nc2ccccc2c(=O)n1-c1ccccc1OC	inactive: -20.8%
Cc1cc(C)cc(-n2c(=O)[nH]c3ccccc3c2=O)c1	inactive: -10.2%
Nc1ccc([As](=O)(O)O)cc1	inactive: 1.67%
O=C1CC(c2c(F)cccc2Cl)c2c(c3ccccc3oc2=O)O1 (centres undefined)	inactive: 14.1%
CCOP(=O)(NC(C)C)Oc1ccc(SC)c(C)c1 (centres undefined)	inactive: -17.7% [at 116 µM]
CC1OC(C)OC(C)O1 (centres undefined)	inactive: 9.57%
Cc1nnc(NC(=O)c2cccn(Cc3ccccc3F)c2=O)s1	inactive: 13.7%
S=C(SSC(=S)N1CCCCC1)N1CCCCC1	inactive: -6.86%
CC[N+]1(CC)CCC(OC(=O)C(O)(c2ccccc2)c2ccccc2)C1 (centres undefined)	inactive: -4.66%
C=CCC1([C@H](C)CCC)C(=O)NC(=O)NC1=O	inactive: -13.4% [at 116 µM]
O=c1[nH]c2ccccc2c(=O)n1-c1ccc(Cl)c(Cl)c1	inactive: 4.17%
O=C(O)c1ccc(=O)[nH]c1	inactive: -1.21%
O=C1CC(c2ccc(Br)cc2)c2c(c3ccccc3oc2=O)O1 (centres undefined)	inactive: -19.3%
Cc1sc2c(c1C)C(c1ccc(Cl)cc1)=N[C@@H](CC(=O)OC(C)(C)C)c1nnc(C)n1-2	inactive: -24.8%
CCN1CCCC1CNC(=O)C(O)(c1ccccc1)c1ccccc1 (centres undefined)	inactive: 6.08%
C[C@]12CC[C@H](O)CC1=CC[C@H]1[C@H]3CCC(=O)[C@@]3(C)CC[C@@H]12	inactive: -11.3%
C[C@@H]1CN(C2CCC(C#N)(c3ccc(F)cc3)CC2)CC[C@]1(C(=O)O)c1ccccc1 (some centres undefined)	inactive: 1.86%
C=Cc1ccc(Cn2c(C)c(CNCCc3cc(OC)ccc3OC)c(C(=O)O)c2C)cc1	inactive: 6.34%
CCC(=O)O[C@H]1CC[C@H]2[C@@H]3CCC4=CC(=O)CC[C@]4(C)[C@H]3CC[C@]12C	inactive: -6.56%
COc1cccc([C@@]2(O)CCCC[C@@H]2CN(C)C)c1	inactive: 2.77%
CO[C@]12CC[C@@]3(C[C@@H]1[C@](C)(O)C(C)(C)C)[C@@H]1Cc4ccc(O)c5c4[C@@]3(CCN1CC1CC1)[C@H]2O5	inactive: -21.2% [at 116 µM]

Compound	activity change, negative = inhibition
CCCCc1nn2c(=O)cc(COC(=O)Cc3ccccc3)nc2s1	inactive: -1.19%
CCc1cc2c(s1)-n1c(C)nnc1CN=C2c1ccccc1Cl	inactive: 7.32%
CC(C)(C)c1ccc(C(=O)Nc2ccc(Cl)cc2C(=O)c2ccccc2)cc1	inactive: -10.1%
CC(C(O)c1ccccc1)N(C)C/C=C/c1ccccc1 (centres undefined)	inactive: -7.66%
O=C(CCCN1CCC(n2c(=O)[nH]c3ccccc32)CC1)c1ccc(F)cc1	inactive: -4.68%
CCC1(CC)C(=O)NC(=O)NC1=O	inactive: -7.75%
C[C@]12CC[C@H]3[C@@H](CCC4=CC(=O)CC[C@@H]43)[C@@H]1CC[C@@H]2OC(=O)CCC1CCCCC1	inactive: -5.56%
C[C@]12CCC(=O)C(O)=C1CC[C@@H]1[C@H]3CCC(=O)[C@@]3(C)CC[C@@H]12	inactive: -9.69%
CCCC[N+]1(C)[C@H]2CC(OC(=O)[C@H](CO)c3ccccc3)C[C@H]1[C@H]1O[C@H]12 (some centres undefined)	inactive: -2.57%
O=C(Nc1cc(C(F)(F)F)cc(C(F)(F)F)c1)c1cccn(Cc2ccccc2Cl)c1=O	inactive: -16.7%
Nc1c(Cl)c(Cl)c(Cl)c(Cl)c1Cl	inactive: -2.06% [at 116 µM]
NC(=O)OCCCc1ccccc1	inactive: -2.27%
CC(C)c1nn2c(=O)cc(COC(=O)Cc3ccccc3)nc2s1	inactive: -0.944%
N=c1c2c(-c3ccccc3)c(-c3ccccc3)n(Cc3ccccc3)c2ncn1C1CCC(O)CC1 (centres undefined)	inactive: -19.8%
OC(c1ccccc1)(c1ccccc1)C1CCNCC1	inactive: -5.39%
CC(=Cc1csc(C)n1)[C@@H]1C[C@H]2O[C@]2(C)CCC[C@H](C)[C@@H](O)[C@@H](C)C(=O)C(C)(C)[C@@H](O)CC(=O)O1	inactive: -13.5%
C[C@]12CCC(=O)C=C1CC[C@@H]1[C@@H]2CC[C@]2(C)C(=O)CC[C@@H]12	inactive: 4.55%
Clc1ccc(C(c2ccc(Cl)cc2)C(Cl)(Cl)Cl)cc1	inactive: -6.66%
Cc1ccc(NC(=O)c2cccn(Cc3ccccc3C)c2=O)c(C)c1	inactive: -21.5%
COc1cc(N)c(Cl)cc1C(=O)NC1CN2CCC1CC2 (centres undefined)	inactive: 3.82%
COc1cc(OC)c(OC)cc1C=O	inactive
Fc1cc(Br)ccc1CBr	inactive: 12.3%
NN=C(N)N	inactive: 6.51%
